From PubChem BioAssay AID1347165 (National Center for Advancing Translational Sciences (NCATS), 2019)
Out of some 220,000 compounds screened, about 5,700 (2.6%) were called active. This list was built around the results that the source calls inconclusive (neither active nor inactive); the mix of calls is not that of the screen. Calls follow the shape of the dose curve; as a rule, active = well fitted inhibition curve with a large enough effect; inconclusive = small, poorly fitted or top-dose-only effect; inactive = no such curve, though single readings can be large or run the other way. Potencies beside an inconclusive call are fits to weak or partial responses and may not hold up.
Also: nearly all actives have a fitted effect of over 70% in size.
For activity change, negative = inhibition in this document: 0% is about no effect.
Potency is read from the fitted curve at half-maximal effect; tags tell the direction and shape of the fitted curve.

What follows are compounds tested against Lysine-specific demethylase 5B (Homo sapiens) (UniProt Q9UGL1) (assay: Primary screen for KDM5B Histone Demethylases FDH-coupled qHTS). Settings: FDH-coupled NADH fluorescence (FDH is formaldehyde dehydrogenase); activity change, negative = inhibition: at 57.7 µM (top of the series) unless noted.
Sequence of UniProt Q9UGL1 (Q9UGL1 whole entry, looked up, the tested form may be a part): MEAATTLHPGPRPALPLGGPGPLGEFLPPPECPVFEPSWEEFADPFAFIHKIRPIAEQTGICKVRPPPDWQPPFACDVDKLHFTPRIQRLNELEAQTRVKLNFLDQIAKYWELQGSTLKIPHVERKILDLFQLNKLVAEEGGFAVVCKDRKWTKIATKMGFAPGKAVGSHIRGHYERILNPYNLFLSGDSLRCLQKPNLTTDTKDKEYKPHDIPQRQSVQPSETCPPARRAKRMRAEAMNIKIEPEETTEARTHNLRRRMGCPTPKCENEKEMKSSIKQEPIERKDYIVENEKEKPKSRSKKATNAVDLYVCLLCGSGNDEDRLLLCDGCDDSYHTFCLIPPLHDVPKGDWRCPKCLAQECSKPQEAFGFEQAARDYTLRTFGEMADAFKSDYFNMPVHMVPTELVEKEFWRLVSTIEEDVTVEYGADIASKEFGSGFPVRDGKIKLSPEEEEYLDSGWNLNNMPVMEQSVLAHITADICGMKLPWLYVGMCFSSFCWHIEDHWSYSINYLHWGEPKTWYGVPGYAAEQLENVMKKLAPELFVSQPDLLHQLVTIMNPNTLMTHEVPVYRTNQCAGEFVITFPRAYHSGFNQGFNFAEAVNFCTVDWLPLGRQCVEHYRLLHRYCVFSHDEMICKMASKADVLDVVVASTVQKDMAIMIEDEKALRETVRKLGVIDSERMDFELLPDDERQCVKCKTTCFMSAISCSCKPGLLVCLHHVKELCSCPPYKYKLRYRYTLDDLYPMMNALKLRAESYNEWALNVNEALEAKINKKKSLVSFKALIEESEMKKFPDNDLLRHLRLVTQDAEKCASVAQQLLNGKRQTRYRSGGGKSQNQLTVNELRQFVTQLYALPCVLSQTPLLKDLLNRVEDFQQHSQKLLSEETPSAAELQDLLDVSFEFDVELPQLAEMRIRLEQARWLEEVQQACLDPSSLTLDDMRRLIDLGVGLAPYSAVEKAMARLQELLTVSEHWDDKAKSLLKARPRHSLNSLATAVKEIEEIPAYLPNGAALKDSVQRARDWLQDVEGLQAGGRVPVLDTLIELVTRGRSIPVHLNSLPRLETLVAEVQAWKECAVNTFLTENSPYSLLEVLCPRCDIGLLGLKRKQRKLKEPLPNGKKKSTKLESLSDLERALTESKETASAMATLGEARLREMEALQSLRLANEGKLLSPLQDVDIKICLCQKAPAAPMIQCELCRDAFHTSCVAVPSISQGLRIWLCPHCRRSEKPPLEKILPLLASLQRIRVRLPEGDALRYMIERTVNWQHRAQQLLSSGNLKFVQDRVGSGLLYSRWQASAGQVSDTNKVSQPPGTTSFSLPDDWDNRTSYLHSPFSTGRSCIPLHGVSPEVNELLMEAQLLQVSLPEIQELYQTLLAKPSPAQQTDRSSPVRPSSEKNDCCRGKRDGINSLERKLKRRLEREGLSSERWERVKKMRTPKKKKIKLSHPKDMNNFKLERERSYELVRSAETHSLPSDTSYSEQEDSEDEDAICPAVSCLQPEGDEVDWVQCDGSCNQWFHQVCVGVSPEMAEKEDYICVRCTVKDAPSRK
Procedure, shortened: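 Inhibition is measured as reduced NADH fluorescence generation from FDH coupling to formaldehyde release. Truncated KDM5BΔAP at 200 nM final acts on H3K4me3 peptide (12.5 µM in substrate mix) in pH 7.5 HEPES buffer with Tween-20, 30 min, room temperature.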
For `O=C(Nc1c(C(=O)Nc2ccc(F)cc2)oc2ccccc12)c1ccccc1F`, the Potency was inconclusive: 39.8 µM [inhibitor, single point].
`Cc1c(CC(=O)O)c(=O)oc2cc(OCc3ccc(C(C)(C)C)cc3)ccc12` was tested, and the Potency was inconclusive: 28.2 µM [inhibitor, partial curve, poor fit].
In the case of `CN(CCCNC(=O)CCC[C@H]1NC[C@@H]2C[C@H]1CN(Cc1ccccc1)C2)C1CCCCC1`, the Potency is reported as inconclusive: 22.4 µM [inhibitor, partial curve, poor fit].
For `CCOC(=O)Cn1c(=O)c2c3c(sc2n(CCCN(C)C)c1=O)CCCC3`, the Potency was inconclusive: 39.8 µM [inhibitor, single point].
For `COCCC(=O)N1CCc2nc(N3CCN(C)CC3)sc2C1`, the Potency was inconclusive: 14.1 µM [inhibitor, single point].
With `CN1CCN(c2cc(-c3cncc(N)c3)nc(N)n2)CC1` the Potency was active: 20 µM.
With `COC(=O)c1ccsc1NC(=O)c1ccco1` the Potency was inconclusive: 39.8 µM [inhibitor, partial curve, poor fit].
For `O=c1cc(N2CCOCC2)oc2c(-c3cccc4[nH]ccc34)nccc12`, the Potency was “inactive”.
`CC(=O)Nc1cccc(NC(=O)C(=O)c2cn(CC(=O)N3CCOCC3)c3ccccc23)c1` was tested, and the Potency was “inactive”.
For `Cc1c(C2=CCN(S(=O)(=O)c3cccc(Cl)c3)CC2)c2ccccc2n1CC(=O)N1CCCC1`, the Potency was inconclusive: 28.2 µM [inhibitor, partial curve, poor fit].
In the case of `CN(Cc1ccccc1)S(=O)(=O)c1ccc(-c2cnc(C3CC3)o2)cc1`, the Potency is reported as inconclusive: 35.5 µM [inhibitor, partial curve, poor fit].
With `COc1ccc(C(=O)N2CCCC3(C2)Nc2cccnc2NC3=NCc2ccccc2)cc1` (stereo not drawn) the Potency was active: 28.2 µM.
For `N#Cc1c(-c2ccccc2)cc(-c2cccs2)nc1SCCS(=O)Cc1ccccc1` (stereo not drawn), the Potency was inconclusive: 25.1 µM [inhibitor, partial curve, poor fit].
`CCOc1ccc(C(=O)Nc2ccc(O)c(-c3nc4ccccc4o3)c2)cc1Cl` was tested, and the Potency was “inactive”.
With `CC(OC(=O)c1cc2ccccc2[nH]1)C(=O)Nc1ccccc1` (stereo not drawn) the Potency was “inactive”.
`CCOC(=O)C1=C(N)Oc2c(oc(CO)cc2=O)C1c1cccc(F)c1` (stereo not drawn) was tested, and the Potency was “inactive”.
`O=C(CCc1cc2n(n1)CCCNC2)N1CCCC(c2nnc3ccccn23)C1` (stereo not drawn) was tested, and the Potency was active: 11.2 µM.
`O=C(NCC1CC1)c1nc2c(o1)CCN(CCc1ccccc1)CC2` was tested, and the Potency was “inactive”.
With `CC(C)Oc1ccc(C(=O)N2CCN(CCc3ccccn3)CC2)cc1` the Potency was inconclusive: 1.26 µM [inhibitor, partial curve, poor fit].
With `CCOC(=O)c1c(CN2CCC(C(=O)NCC(F)(F)F)CC2)nc2ccccc2c1C` the Potency was “inactive”.
`Cc1cc(C)n(-c2nc3c(c(=O)n(CC(=O)C(C)(C)C)c(=O)n3C)n2C)n1` was tested, and the Potency was “inactive”.
For `CC(C)CNc1oc(-c2ccc(S(=O)(=O)N3CCCCCC3)cc2)nc1C#N`, the Potency was inconclusive: 28.2 µM [inhibitor, single point].
`N#Cc1ccccc1-c1ccc(COc2ccccc2C(N)=O)cc1` was tested, and the Potency was “inactive”.
For `COc1ccc(C(=O)N2CCC3(CC2)CC(=O)c2ccccc2O3)cc1`, the Potency was active: 31.6 µM.
`CCOC(=O)C(C)N1C(=O)S/C(=C/c2ccc(Cl)s2)C1=O` (stereo not drawn) was tested, and the Potency was “inactive”.
With `O=c1c2oc3ccccc3c2n(Cc2ccccc2Cl)c(=O)n1Cc1ccco1` the activity change, negative = inhibition was inconclusive: -33% [inhibitor].
`O=C(Nc1ccc2nc(SCC(=O)N3CCc4ccccc43)sc2c1)c1ccc(F)cc1` was tested, and the Potency was inconclusive: 5.01 µM [inhibitor, full curve, poor fit].
`COc1ccc(CN(Cc2ccco2)c2cnc(S(C)(=O)=O)nc2C(=O)Nc2ccc(C)c(Cl)c2)cc1` was tested, and the Potency was inconclusive: 35.5 µM [inhibitor, single point].
In the case of `Cc1nn(C)c(C)c1S(=O)(=O)N1CCC2(CC1)c1[nH]c3ccccc3c1CCN2C`, the Potency is reported as inconclusive: 17.8 µM [inhibitor, single point].
With `NC(=O)C1CCN(C(=O)c2cc(-c3ccc(-c4ccccc4)cc3)nc3ccccc23)CC1` the Potency was inconclusive: 35.5 µM [inhibitor, partial curve, poor fit].
`CCN(CC)CCCNC(=O)c1cc2cc(Cl)ccc2[nH]1` was tested, and the Potency was inconclusive: 17.8 µM [inhibitor, single point].
For `COc1ccc2[nH]c(=O)c(CN3CCOC(CN)C3)cc2c1` (stereo not drawn), the Potency was active: 25.1 µM.
`O=C(NCc1cccc(Cl)c1)c1ccc(NC(=O)N2CC3CCCN3c3ccccc32)cc1` (stereo not drawn) was tested, and the Potency was inconclusive: 6.31 µM [inhibitor, partial curve, poor fit].
For `O=C(NCCN1CCN(C(=O)c2ccc(Cl)cc2)CC1)c1ccc(Cl)cc1`, the Potency was “inactive”.
In the case of `O[C@@H]1C[C@@H](c2nc(-c3ccncc3)no2)N(C2CCCCC2)C1`, the Potency is reported as inconclusive: 31.6 µM [inhibitor, single point].
With `CCCCn1c(N)c(N(CCOC)C(=O)c2cc(-c3ccncc3)nc3ccccc23)c(=O)[nH]c1=O` the Potency was inconclusive: 39.8 µM [inhibitor, single point].
`CSc1ncc(C(=O)NCc2cccc(F)c2)c(-c2ccccc2)n1` was tested, and the Potency was inconclusive: 2.24 µM [inhibitor, partial curve, poor fit].
For `COc1ccc2nc(/C=C/c3cccc(O)c3)sc2c1`, the Potency was inconclusive: 28.2 µM [inhibitor, partial curve, poor fit].
In the case of `CCn1c2c(c(=O)n1-c1ccccc1)CCN(Cc1ccccn1)C2`, the Potency is reported as inconclusive: 39.8 µM [inhibitor, partial curve, poor fit].
In the case of `O=C(Cc1cccs1)N1CCC(c2n[nH]c(=O)n2Cc2ccc(F)cc2)CC1`, the Potency is reported as “inactive”.
With `Cn1cccc1CN1CCCC2(C1)C(=NC1CCCCC1)NC(=O)N2c1cc(F)cc(F)c1` (stereo not drawn) the Potency was “inactive”.
With `Cc1ccc(CNC(=O)C2CCN(S(=O)(=O)c3c(C)noc3/C=C/c3cccs3)CC2)cc1` the Potency was inconclusive: 39.8 µM [inhibitor, single point].
For `Cc1ccc(CNC(=O)Cn2c(=O)cc(C(F)(F)F)c3c(C)nn(C)c32)cc1`, the Potency was inconclusive: 35.5 µM [inhibitor, single point].
In the case of `COC(=O)C1=C(c2ccccc2)c2ccccc2S(=O)(=O)N1CC(=O)Nc1ccc(F)c(F)c1`, the Potency is reported as inconclusive: 35.5 µM [inhibitor, single point].
`Cn1cc(-c2cc(=O)c3ccnc(NCc4ccc(F)cc4)c3o2)cn1` was tested, and the Potency was active: 31.6 µM.
With `COc1ccc(CNC(=O)c2cnc3sc(N4CCCCCC4)nn3c2=O)cc1` the Potency was inconclusive: 2 µM [inhibitor, full curve, poor fit].
`O=C(Nc1cccc(Cl)c1)N1CCC(n2cnnc2C2CC2)C1` (stereo not drawn) was tested, and the Potency was “inactive”.
With `COc1ccc2cc(CN3CCC(CO)CC3)c(-c3ccc(Cl)cc3)nc2c1` the Potency was inconclusive: 31.6 µM [inhibitor, partial curve, poor fit].
`Cn1cnc2cc(Nc3ccc(Cl)cc3F)cc(C(=O)NCc3cccnc3)c21` was tested, and the Potency was active: 35.5 µM.
With `FC(F)Oc1ccc(-c2ccnc(=S)[nH]2)cc1` the Potency was “inactive”.
With `COC(=O)C1C(=O)C=C(N)CC1c1ccco1` (stereo not drawn) the Potency was inconclusive: 15.8 µM [inhibitor, partial curve, poor fit].
With `OCc1c[nH]c2c1ccc1ccccc12` the Potency was “inactive”.
For `CCc1oc2cc(O)ccc2c(=O)c1-c1ccccc1OC`, the Potency was inconclusive: 22.4 µM [inhibitor, partial curve, poor fit].
`CCN1c2ccccc2-c2nc(SCC(=O)NCc3ccc(C)cc3)ncc2S1(=O)=O` was tested, and the Potency was inconclusive: 2.24 µM [inhibitor, partial curve, poor fit].
For `Cc1ccc(C(=O)NC2CCCN(c3nc4ncccc4o3)C2)cc1` (stereo not drawn), the Potency was inconclusive: 39.8 µM [inhibitor, partial curve, poor fit].
For `CC(C)N1C(=O)CO[C@H](c2ccc(NS(=O)(=O)Cc3ccccc3)cc2)[C@H]1CO`, the Potency was inconclusive: 39.8 µM [inhibitor, partial curve, poor fit].
For `COc1ccc(-c2noc(-c3nc(C(C)C)no3)n2)cc1`, the Potency was inconclusive: 39.8 µM [inhibitor, partial curve, poor fit].
With `COc1cccc(-c2ccnc3nc(CCc4ccccc4)nn23)c1` the Potency was active: 20 µM.
For `COc1ccc(-c2noc([C@@H]3C[C@@H](O)CN3Cc3ncc[nH]3)n2)cc1`, the Potency was inconclusive: 17.8 µM [inhibitor, partial curve, poor fit].
With `O=C(NCc1ccc2c(c1)OCO2)c1nc(-c2ccc(F)cc2)c2ccccn12` the Potency was inconclusive: 15.8 µM [inhibitor, partial curve, poor fit].
`COc1ccc(CC(=O)N2CC(c3nnc(C(C)C)o3)C3(CCOCC3)C2)cc1Cl` (stereo not drawn) was tested, and the Potency was “inactive”.
For `O=C(NCCCc1ccccc1)c1cc2cc([N+](=O)[O-])ccc2oc1=O`, the Potency was “inactive”.
With `COCc1ccc2c(c1)c(OC(C)(C)C(=O)NCCCN1CCCC1=O)nn2Cc1cccnc1` the Potency was “inactive”.
With `COc1cc(OC)c(C2Nc3c(C)cccc3-c3cc(C)nn32)cc1OC` (stereo not drawn) the Potency was inconclusive: 8.91 µM [inhibitor, partial curve, poor fit].
`Cn1ccnc1-c1ccc(N2CCCC(CO)(CCOc3ccccc3)C2)nn1` (stereo not drawn) was tested, and the Potency was active: 31.6 µM.
`O=c1c2c(nc3cc(-c4ccccc4)[nH]n13)CCN(S(=O)(=O)c1ccccc1Cl)C2` was tested, and the Potency was inconclusive: 12.6 µM [inhibitor, partial curve].
In the case of `COc1ccc(NC(=O)c2ccccc2SCc2ccc(C#N)cc2)cc1OC`, the Potency is reported as “inactive”.
In the case of `Cc1nn(C)c2c1c(C(F)(F)F)cc(=O)n2C(C)C(=O)NCc1ccc(Cl)cc1` (stereo not drawn), the Potency is reported as inconclusive: 6.31 µM [inhibitor, partial curve, poor fit].
